Test results from PubChem BioAssay AID2546 (National Center for Advancing Translational Sciences (NCATS), 2010).
Among all 310,000 compounds or so, about 11,000 (3.5%) were called active. Inconclusive means that the source gave no clear call. Such entries were picked first, then a sample of the others. Calls come from the whole dose curve; as a rule, active = well fitted inhibition curve with a large enough effect; inconclusive = small, poorly fitted or top-dose-only effect, or effect the other way; inactive = flat fitted curve, though single readings scatter. Potencies of inconclusive entries are left out as doubtful fits.

Test: VP16 counterscreen qHTS for inhibitors of ROR gamma transcriptional activity;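 note: Gal4-VP16 expression switched on by copper sulfate through the metallothionein promoter; nearly all actives have a fitted effect of over 50% in size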
Conditions: Drosophila S2 Gal4-VP16 UAS-luciferase, luminescence, 20 h; activity, negative = inhibition: at 53.6 µM (top of the series)
% is set by controls: 0 for no effect and ±100 for the full control effect; potency is the fitted concentration of half-maximal effect; tags give direction and shape of the fitted curve.

Compound	Potency	activity, negative = inhibition
COc1ccc(NC(=O)CSc2nnc(CNC(=O)COc3ccc(Cl)cc3)o2)c(OC)c1	inactive	
O=C(Nc1cccc(-c2nc3ccccc3[nH]2)c1)c1ccco1	inconclusive [inhibitor, single point]	
Cc1cc2oc(=O)cc(Cn3ncc(Cl)c(Cl)c3=O)c2cc1Cl	inconclusive [inhibitor, partial curve]	
Cc1cc2c(cc1C)CSC(c1ccccc1OC(=O)C(C)(C)C)SC2	inconclusive [inhibitor, single point]	
COc1cccc(-c2nc3ccc(C(=O)NC(C)Cc4cccnc4)cc3o2)c1 (centres undefined)	inconclusive [inhibitor, single point]	
CC12CCC(/C(=N/O)C1=O)C2(C)C (centres undefined)	inactive	
Cc1ccccc1N1CCN(C(=O)c2ccc(Oc3ccc(C(F)(F)F)cn3)cc2)CC1	inconclusive [inhibitor, single point]	
Cc1ccc(NCc2ccc(O)c3ncccc23)cc1C	inconclusive [inhibitor, single point]	
CC(C)(C)c1csc(Sc2ncccc2[N+](=O)[O-])n1	inactive	
COc1ccc(Cl)cc1C(Nc1cccnc1)c1ccc2cccnc2c1O (centres undefined)	active: 2.24 µM	
O=C(c1cccs1)N1CCN(c2nc3ccccc3s2)CC1	inactive	
Clc1ccc(-n2ncc3c(NCc4cccs4)ncnc32)cc1	inconclusive [inhibitor, single point]	
C[C@@H](C(=O)Nc1ccc2ccccc2c1)[C@H]1C[C@]1(C)[C@H](NC(=O)c1cccnc1)c1ccccc1	inconclusive [inhibitor, single point]	
O=C(Cc1ccccc1F)Nc1nc2ccccc2[nH]1	inconclusive [activator, single point]	
CCC(=O)Nc1nc2ccccc2n1Cc1ccc(Cl)cc1	active: 1.26 µM	
CCN(Cc1nc2ccccc2c(=O)[nH]1)Cc1nc2ccsc2c(=O)[nH]1	active: 1 µM	
Cc1ccc(C)c(Sc2ccc(NC(=O)CCl)cc2)c1	inconclusive [inhibitor, single point]	
Cc1cccn2c(=O)c3cc(C(=O)N4COCC4(C)C)sc3nc12	inconclusive [activator, single point]	
O=C(/C=C/c1c[nH]c2ccccc12)c1cccc2ccccc12	inconclusive [inhibitor, single point]	
COc1c(O)ccc(/C=N/NC(=O)c2ccc3c(c2)OCCO3)c1[N+](=O)[O-]	active: 1.58 µM	
Cc1cc(C)nc(SCc2ccc(C(=O)NN=C3CCCC3)cc2)n1	inactive	
COCCn1c(C)cc(C(=O)CSc2nnc3ccccn23)c1C	inconclusive [inhibitor, partial curve, poor fit]	
COc1ccc(C)cc1Nc1n[n+](-c2ccccc2)c(-c2c(Cl)cccc2Cl)s1	active: 15.8 µM	
CC(C)C(NC(=O)C(c1ccccc1)c1ccccc1)c1nc2ccccc2[nH]1 (centres undefined)	inconclusive [inhibitor, single point]	
CC1(CCc2ccccc2)NC(=S)N(c2ccccc2)N1 (centres undefined)	active: 20 µM	

Compound	Potency	activity, negative = inhibition
CCNc1nc(SCC(=O)Nc2ccc(Cl)c(Cl)c2)nc(N(C)C)n1		inactive: 4.35% [at 10 µM]
Cc1ccc(C(=O)N/C(=C\c2cccs2)C(=O)NCCCn2ccnc2)cc1	inconclusive [activator, single point]	
Cc1cc(C)c(C#N)c(OCC(=O)c2ccccc2)n1	inconclusive [inhibitor, single point]	
Cc1cc(C)nc(NS(=O)(=O)c2ccc(NC(=O)c3ccc(S(=O)(=O)N4CC(C)OC(C)C4)cc3)cc2)n1 (centres undefined)	inconclusive [inhibitor, full curve, poor fit]	
O=C(Nc1nc(-c2ccccc2)cs1)C1CCCCN1S(=O)(=O)c1ccccc1 (centres undefined)	inconclusive [inhibitor, single point]	
COc1ccc(/C=N/NC(=O)c2ccc(NC(=O)C3CCCCC3)cc2)cc1O	inconclusive [inhibitor, single point]	
COc1ccc(Oc2ncc3nc(C)c(=O)n(C[C@H]4CCCO4)c3n2)cc1	inactive	
O=[N+]([O-])c1ccccc1NC(=S)N/N=C/c1ccc(O)c(O)c1	inconclusive [inhibitor, single point]	
CC(=O)c1cccc(OCc2cc(C(=O)N(C)C(C)c3ccccn3)no2)c1 (centres undefined)	inactive	
Cc1cc(NC(=O)CS(=O)(=O)c2cn(Cc3ccc(F)cc3)c3ccccc23)no1	inconclusive [inhibitor, single point]	
Cc1c(/C=N/NC(=O)c2sc3ccccc3c2Cl)cnn1C	active: 11.2 µM	
CCc1cc2c(=O)n(Cc3ccco3)c(SCC(=O)N(C)C3CCS(=O)(=O)C3)nc2s1 (centres undefined)	inconclusive [activator, single point]	
Cc1ccccc1OCC(O)CN1CCN(CC(O)COc2ccccc2C)CC1 (centres undefined)	inactive	
S=C(Nc1ccccc1)N(CCN1CCOCC1)Cc1cccc(Cl)c1	inconclusive [inhibitor, single point]	
NS(=O)(=O)c1cccc(NC(=O)CSc2nc3ccccc3n2-c2ccccc2)c1	inactive	
CCCNC(=O)NC(=O)CSc1nc2cc(C(=O)OC)ccc2c(=O)n1-c1ccccc1	inconclusive [inhibitor, partial curve]	
CCn1c(=O)c2c(nc3n2CCCN3Cc2ccccc2)n(C)c1=O	inactive	
COC(=O)C1=CN(c2ccc(Cl)cc2)C=C(C(=O)OC)C1c1ccc([N+](=O)[O-])cc1	inactive	
C/C(=N\NC(=O)c1ccccc1NC(=O)c1ccc(Cl)cc1)c1ccncc1	active: 0.891 µM	
CC(C(=O)Nc1ccc(C#N)cc1)N(C)CC(=O)Nc1ccccc1Br (centres undefined)	inactive	
Cc1cc2ccccc2n1CCNC(=O)c1ccccc1	active: 2.51 µM	
Cc1ccc(-c2cc(-c3cccc(F)c3)n[nH]2)c(O)c1	active: 10 µM	
COc1cc(C(=O)N2CCC3(CC2)NCCc2[nH]cnc23)cc(OC)c1OC	inactive	
Cc1cc(Nc2cccc(Cl)c2)nc(NCc2ccccc2)n1	active: 15.8 µM	
CCC(C(=O)Nc1nc(C)c(C)s1)c1ccccc1 (centres undefined)	inconclusive [inhibitor, single point]	

Compound	Potency	activity, negative = inhibition
CCCC(c1nnnn1Cc1ccco1)N1CCC(C(N)=O)CC1 (centres undefined)	inactive	
COc1ccc(C(C(=O)NC2CCCCC2)N(C(=O)c2ccco2)c2ccccc2OC)cc1 (centres undefined)	inactive	
CC(C)C[C@H](NC(=O)c1[nH]cnc1C(=O)N[C@@H](Cc1ccccc1)C(=O)OC(C)(C)C)C(=O)OCc1ccccc1	inconclusive [inhibitor, single point]	
O=C1OCCC1Sc1nnc(-c2ccc3c(c2)OCO3)o1 (centres undefined)	inconclusive [inhibitor, partial curve]	
O=C(Nc1cccc(Oc2ccc(C(=O)O)c(C(=O)O)c2)c1)c1ccc(-c2ccccc2)cc1	inconclusive [inhibitor, partial curve]	
CCCNC(=O)Cn1sc2nc(C)cc(C)c2c1=O	inconclusive [inhibitor, single point]	
CCOC(=O)c1[nH]cnc1C(=O)Nc1cccc(N)n1	inactive	
Cc1cc(-c2ccc(C(C)C)c(S(=O)(=O)N3CCN(c4ccccc4)CC3)c2)on1	inactive	
O=C(c1cnccn1)N1CCC[C@@]2(CCN(c3ccccn3)C2)C1	inactive	
C=CCc1ccccc1OCC(O)CN1CCN(C(=O)OCC)CC1 (centres undefined)	inconclusive [inhibitor, single point]	
Cc1ccccc1Cn1c(Cc2ccccc2)nc2ccccc21	inconclusive [inhibitor, single point]	
Cc1ccc(C)c(OCc2cc(C(=O)N3CCOCC3)no2)c1	inconclusive [inhibitor, single point]	
CC1CCCCN1S(=O)(=O)c1ccc(C(=O)Nc2nnc(-c3cccs3)o2)cc1 (centres undefined)	active: 0.891 µM	
CC1CN(C(=O)Nc2ccccc2)c2ccccc2-[n+]2ccsc21 (centres undefined)	inactive	
COc1ccc(-c2csc3ncnc(N4CCN(Cc5ccccc5)CC4)c23)cc1	inconclusive [inhibitor, single point]	
C=CCOc1ccc(CNn2cn[nH]c2=S)cc1	inconclusive [inhibitor, single point]	
COCc1nc2ccccc2n1Cc1ccccc1Br	active: 5.62 µM	
Nc1nc(-c2nc3ccccc3[nH]2)cs1	inconclusive [inhibitor, single point]	
CC(C)C[C@H](NC(=O)c1nc[nH]c1C(=O)NCC(=O)OCc1ccccc1)C(=O)OCc1ccccc1	inconclusive [inhibitor, single point]	
Cc1ccccc1NC(=S)N(Cc1cccs1)C1CCCC1	inconclusive [inhibitor, single point]	
Cn1c(=O)c2c(ncn2CCOc2ccc(F)cc2)n(C)c1=O	inconclusive [inhibitor, single point]	
Cc1ccccc1CN(C)CCS(=O)(=O)c1cc(Cl)ccc1Cl	inactive	
O=C(CCC(=O)NNc1nc2ccccc2c2nc(-c3ccccc3)nn12)NCCCN1CCOCC1	inactive	
CCOC(=O)Cc1c(Sc2ccccc2)c2ccccc2n1C	inconclusive [inhibitor, partial curve]	
